Data from the supplement of paper PMC10724272.

Legend:
Test in all cases: CLSI broth microdilution.
itraconazole = compound: CCC(C)n1ncn(-c2ccc(N3CCN(c4ccc(OCC5COC(Cn6cncn6)(c6ccc(Cl)cc6Cl)O5)cc4)CC3)cc2)c1=O [itraconazole]
micafungin = compound: CCCCCOc1ccc(-c2cc(-c3ccc(C(=O)N[C@H]4C[C@@H](O)[C@@H](O)NC(=O)[C@@H]5[C@@H](O)[C@@H](C)CN5C(=O)[C@H]([C@H](O)CC(N)=O)NC(=O)[C@H]([C@H](O)[C@@H](O)c5ccc(O)c(OS(=O)(=O)O)c5)NC(=O)[C@@H]5C[C@@H](O)CN5C(=O)[C@H]([C@@H](C)O)NC4=O)cc3)no2)cc1 [micafungin]
anidulafungin = compound: CCCCCOc1ccc(-c2ccc(-c3ccc(C(=O)N[C@H]4C[C@@H](O)[C@@H](O)NC(=O)[C@@H]5[C@@H](O)[C@@H](C)CN5C(=O)[C@H]([C@@H](C)O)NC(=O)[C@H]([C@H](O)[C@@H](O)c5ccc(O)cc5)NC(=O)[C@@H]5C[C@@H](O)CN5C(=O)[C@H]([C@@H](C)O)NC4=O)cc3)cc2)cc1 [anidulafungin]
posaconazole = compound: CC[C@@H]([C@H](C)O)n1ncn(-c2ccc(N3CCN(c4ccc(OC[C@@H]5CO[C@@](Cn6cncn6)(c6ccc(F)cc6F)C5)cc4)CC3)cc2)c1=O [posaconazole]
caspofungin = compound: CC[C@H](C)C[C@H](C)CCCCCCCCC(=O)N[C@H]1C[C@@H](O)[C@@H](NCCN)NC(=O)[C@@H]2[C@@H](O)CCN2C(=O)[C@H]([C@H](O)CCN)NC(=O)[C@H]([C@H](O)[C@@H](O)c2ccc(O)cc2)NC(=O)[C@@H]2C[C@@H](O)CN2C(=O)[C@H]([C@@H](C)O)NC1=O [caspofungin]
voriconazole = compound: C[C@@H](c1ncncc1F)[C@](O)(Cn1cncn1)c1ccc(F)cc1F [voriconazole]
amphotericin B = compound: C[C@@H]1[C@H](O)[C@@H](C)/C=C/C=C/C=C/C=C/C=C/C=C/C=C/[C@H](O[C@@H]2O[C@H](C)[C@@H](O)[C@H](N)[C@@H]2O)C[C@@H]2O[C@](O)(C[C@@H](O)C[C@@H](O)[C@H](O)CC[C@@H](O)C[C@@H](O)CC(=O)O[C@H]1C)C[C@H](O)[C@H]2C(=O)O [amphotericin B]
flucytosine = compound: Nc1[nH]c(=O)ncc1F [flucytosine]
fluconazole = compound: OC(Cn1cncn1)(Cn1cncn1)c1ccc(F)cc1F [fluconazole]

Candida tropicalis isolate 157 (ERG11 copies: 8, Erg11p: Y132F, S154F (heterozygous))
MIC (itraconazole): 1 mg/L [R] | MIC (micafungin): 0.03 mg/L [S] | MIC (anidulafungin): 0.06 mg/L [S] | MIC (posaconazole): 1 mg/L [R] | MIC (caspofungin): 0.03 mg/L [S] | MIC (voriconazole): > 8 mg/L [R] | MIC (amphotericin B): 1 mg/L [S] | MIC (flucytosine): ≤ 0.06 mg/L [S] | MIC (fluconazole): 512 mg/L [R]

Candida tropicalis isolate 25 (ERG11 copies: 2, Erg11p: no key change)
MIC (itraconazole): 0.12 mg/L [S] | MIC (micafungin): 0.03 mg/L [S] | MIC (anidulafungin): 0.12 mg/L [S] | MIC (posaconazole): 0.06 mg/L [S] | MIC (caspofungin): 0.06 mg/L [S] | MIC (voriconazole): 0.06 mg/L [S] | MIC (amphotericin B): 1 mg/L [S] | MIC (flucytosine): ≤ 0.06 mg/L [S] | MIC (fluconazole): 1 mg/L [S]

Candida tropicalis isolate 303 (ERG11 copies: 2, Erg11p: no key change)
MIC (itraconazole): 0.12 mg/L [S] | MIC (micafungin): 0.03 mg/L [S] | MIC (anidulafungin): ≤ 0.015 mg/L [S] | MIC (posaconazole): 0.12 mg/L [S] | MIC (caspofungin): 0.12 mg/L [S] | MIC (voriconazole): 0.06 mg/L [S] | MIC (amphotericin B): 0.5 mg/L [S] | MIC (flucytosine): ≤ 0.06 mg/L [S] | MIC (fluconazole): 1 mg/L [S]

Candida tropicalis isolate 366 (ERG11 copies: 8, Erg11p: Y132F, S154F (heterozygous))
MIC (itraconazole): 0.5 mg/L [S] | MIC (micafungin): 0.03 mg/L [S] | MIC (anidulafungin): 0.06 mg/L [S] | MIC (posaconazole): 0.5 mg/L [R] | MIC (caspofungin): 0.03 mg/L [S] | MIC (voriconazole): ≥ 8 mg/L [R] | MIC (amphotericin B): 1 mg/L [S] | MIC (flucytosine): ≤ 0.06 mg/L [S] | MIC (fluconazole): 512 mg/L [R]

Candida tropicalis isolate 135 (ERG11 copies: 2, Erg11p: no key change)
MIC (itraconazole): 0.25 mg/L [S] | MIC (micafungin): 0.03 mg/L [S] | MIC (anidulafungin): 0.12 mg/L [S] | MIC (posaconazole): 0.25 mg/L [S] | MIC (caspofungin): 0.06 mg/L [S] | MIC (voriconazole): 0.12 mg/L [S] | MIC (amphotericin B): 1 mg/L [S] | MIC (flucytosine): ≤ 0.06 mg/L [S] | MIC (fluconazole): 2 mg/L [S]

Candida tropicalis isolate 32 (ERG11 copies: 6, Erg11p: Y132F, S154F (heterozygous))
MIC (itraconazole): 0.5 mg/L [S] | MIC (micafungin): 0.03 mg/L [S] | MIC (anidulafungin): 0.25 mg/L [S] | MIC (posaconazole): 0.5 mg/L [R] | MIC (caspofungin): 0.03 mg/L [S] | MIC (voriconazole): ≥ 8 mg/L [R] | MIC (amphotericin B): 1 mg/L [S] | MIC (flucytosine): ≤ 0.06 mg/L [S] | MIC (fluconazole): 256 mg/L [R]

Candida tropicalis isolate 374 (ERG11 copies: 2, Erg11p: no key change)
MIC (itraconazole): 0.12 mg/L [S] | MIC (micafungin): 0.03 mg/L [S] | MIC (anidulafungin): 0.25 mg/L [S] | MIC (posaconazole): 0.12 mg/L [S] | MIC (caspofungin): 0.03 mg/L [S] | MIC (voriconazole): 0.12 mg/L [S] | MIC (amphotericin B): 1 mg/L [S] | MIC (flucytosine): ≤ 0.06 mg/L [S] | MIC (fluconazole): 2 mg/L [S]

Candida tropicalis isolate 305 (ERG11 copies: 2, Erg11p: no key change)
MIC (itraconazole): 0.12 mg/L [S] | MIC (micafungin): 0.03 mg/L [S] | MIC (anidulafungin): 0.03 mg/L [S] | MIC (posaconazole): 0.12 mg/L [S] | MIC (caspofungin): 0.03 mg/L [S] | MIC (voriconazole): 0.06 mg/L [S] | MIC (amphotericin B): 0.5 mg/L [S] | MIC (flucytosine): ≤ 0.06 mg/L [S] | MIC (fluconazole): 1 mg/L [S]

Candida tropicalis isolate 122 (ERG11 copies: 2, Erg11p: no key change)
MIC (itraconazole): 0.5 mg/L [S] | MIC (micafungin): 0.03 mg/L [S] | MIC (anidulafungin): 0.03 mg/L [S] | MIC (posaconazole): 0.5 mg/L [R] | MIC (caspofungin): 0.015 mg/L [S] | MIC (voriconazole): 0.25 µg/mL | MIC (amphotericin B): 1 mg/L [S] | MIC (flucytosine): 0.12 mg/L [S] | MIC (fluconazole): 2 mg/L [S]

Candida tropicalis isolate 299 (ERG11 copies: 2, Erg11p: no key change)
MIC (itraconazole): 0.12 mg/L [S] | MIC (micafungin): 0.015 mg/L [S] | MIC (anidulafungin): 0.06 mg/L [S] | MIC (posaconazole): 0.12 mg/L [S] | MIC (caspofungin): 0.06 mg/L [S] | MIC (voriconazole): 0.06 mg/L [S] | MIC (amphotericin B): 0.5 mg/L [S] | MIC (flucytosine): ≤ 0.06 mg/L [S] | MIC (fluconazole): 1 mg/L [S]

Candida tropicalis isolate 231 (ERG11 copies: 2, Erg11p: no key change)
MIC (itraconazole): 0.5 mg/L [S] | MIC (micafungin): 0.03 mg/L [S] | MIC (anidulafungin): 0.12 mg/L [S] | MIC (posaconazole): 0.5 mg/L [R] | MIC (caspofungin): 0.25 mg/L [S] | MIC (voriconazole): 0.5 µg/mL | MIC (amphotericin B): 1 mg/L [S] | MIC (flucytosine): ≤ 0.06 mg/L [S] | MIC (fluconazole): 256 mg/L [R]

Candida tropicalis isolate 346 (ERG11 copies: 9, Erg11p: Y132F, S154F (heterozygous))
MIC (itraconazole): 1 mg/L [R] | MIC (micafungin): 0.03 mg/L [S] | MIC (anidulafungin): ≤ 0.015 mg/L [S] | MIC (posaconazole): 1 mg/L [R] | MIC (caspofungin): 0.03 mg/L [S] | MIC (voriconazole): ≥ 8 mg/L [R] | MIC (amphotericin B): 1 mg/L [S] | MIC (flucytosine): ≤ 0.06 mg/L [S] | MIC (fluconazole): 256 mg/L [R]

Candida tropicalis isolate 265 (ERG11 copies: 13, Erg11p: Y132F, S154F (homozygous))
MIC (itraconazole): 2 mg/L [R] | MIC (micafungin): 0.03 mg/L [S] | MIC (anidulafungin): ≤ 0.015 mg/L [S] | MIC (posaconazole): 2 mg/L [R] | MIC (caspofungin): 0.06 mg/L [S] | MIC (voriconazole): ≥ 8 mg/L [R] | MIC (amphotericin B): 1 mg/L [S] | MIC (flucytosine): ≤ 0.06 mg/L [S] | MIC (fluconazole): 512 mg/L [R]

Candida tropicalis isolate 413 (ERG11 copies: 8, Erg11p: Y132F, S154F (heterozygous))
MIC (itraconazole): 1 mg/L [R] | MIC (micafungin): 0.03 mg/L [S] | MIC (anidulafungin): 0.25 mg/L [S] | MIC (posaconazole): 1 mg/L [R] | MIC (caspofungin): 0.03 mg/L [S] | MIC (voriconazole): ≥ 8 mg/L [R] | MIC (amphotericin B): 1 mg/L [S] | MIC (flucytosine): ≤ 0.06 mg/L [S] | MIC (fluconazole): 512 mg/L [R]

Candida tropicalis isolate 418 (ERG11 copies: 2, Erg11p: no key change)
MIC (itraconazole): 0.25 mg/L [S] | MIC (micafungin): 0.03 mg/L [S] | MIC (anidulafungin): 0.06 mg/L [S] | MIC (posaconazole): 0.25 mg/L [S] | MIC (caspofungin): 0.06 mg/L [S] | MIC (voriconazole): 0.25 µg/mL | MIC (amphotericin B): 0.25 mg/L [S] | MIC (flucytosine): ≤ 0.06 mg/L [S] | MIC (fluconazole): 2 mg/L [S]

Candida tropicalis isolate 67 (ERG11 copies: 2, Erg11p: no key change)
MIC (itraconazole): 0.12 mg/L [S] | MIC (micafungin): 0.06 mg/L [S] | MIC (anidulafungin): 0.12 mg/L [S] | MIC (posaconazole): 0.06 mg/L [S] | MIC (caspofungin): 0.06 mg/L [S] | MIC (voriconazole): 0.03 mg/L [S] | MIC (amphotericin B): 1 mg/L [S] | MIC (flucytosine): ≤ 0.06 mg/L [S] | MIC (fluconazole): 1 mg/L [S]

Candida tropicalis isolate 441 (ERG11 copies: 2, Erg11p: no key change)
MIC (itraconazole): 0.25 mg/L [S] | MIC (micafungin): 0.06 mg/L [S] | MIC (anidulafungin): 0.12 mg/L [S] | MIC (posaconazole): 0.25 mg/L [S] | MIC (caspofungin): 0.25 mg/L [S] | MIC (voriconazole): 0.25 µg/mL | MIC (amphotericin B): 0.5 mg/L [S] | MIC (flucytosine): ≤ 0.06 mg/L [S] | MIC (fluconazole): 2 mg/L [S]

MIC of invasive clinical C. tropicalis isolates, CLSI broth microdilution (fluconazole 0.12-256 mg/L, up to 1,024 for the azole-resistant cluster and its neighbour group; other ranges not stated); higher = less susceptible. Call: susceptible or wild type [S] / resistant or non-wild type [R] by CLSI breakpoints or cut-offs; intermediate and dose-dependent carry no call. '<=' and '>=' at the end values are inferred; the source marks only some of them. Isolates are numbered anew.
